Laboratory results published in publication PMC4336329 (PLoS ONE, 2015).
In all, about 310,000 compounds went through this assay and about 14,000 (4.5%) showed an effect of 50% or more. Effects have a minus sign here. Some of the results follow.

Target: human ether-à-go-go-related gene (hERG) potassium channel (human, UniProt Q12809)
Test: primary screen, population patch clamp on CHO cells stably expressing hERG
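Also: peak tail current of the secondary pulse compared with the same well before compound.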

human ether-à-go-go-related gene (hERG) potassium channel, sequence (Q12809 whole entry, looked up): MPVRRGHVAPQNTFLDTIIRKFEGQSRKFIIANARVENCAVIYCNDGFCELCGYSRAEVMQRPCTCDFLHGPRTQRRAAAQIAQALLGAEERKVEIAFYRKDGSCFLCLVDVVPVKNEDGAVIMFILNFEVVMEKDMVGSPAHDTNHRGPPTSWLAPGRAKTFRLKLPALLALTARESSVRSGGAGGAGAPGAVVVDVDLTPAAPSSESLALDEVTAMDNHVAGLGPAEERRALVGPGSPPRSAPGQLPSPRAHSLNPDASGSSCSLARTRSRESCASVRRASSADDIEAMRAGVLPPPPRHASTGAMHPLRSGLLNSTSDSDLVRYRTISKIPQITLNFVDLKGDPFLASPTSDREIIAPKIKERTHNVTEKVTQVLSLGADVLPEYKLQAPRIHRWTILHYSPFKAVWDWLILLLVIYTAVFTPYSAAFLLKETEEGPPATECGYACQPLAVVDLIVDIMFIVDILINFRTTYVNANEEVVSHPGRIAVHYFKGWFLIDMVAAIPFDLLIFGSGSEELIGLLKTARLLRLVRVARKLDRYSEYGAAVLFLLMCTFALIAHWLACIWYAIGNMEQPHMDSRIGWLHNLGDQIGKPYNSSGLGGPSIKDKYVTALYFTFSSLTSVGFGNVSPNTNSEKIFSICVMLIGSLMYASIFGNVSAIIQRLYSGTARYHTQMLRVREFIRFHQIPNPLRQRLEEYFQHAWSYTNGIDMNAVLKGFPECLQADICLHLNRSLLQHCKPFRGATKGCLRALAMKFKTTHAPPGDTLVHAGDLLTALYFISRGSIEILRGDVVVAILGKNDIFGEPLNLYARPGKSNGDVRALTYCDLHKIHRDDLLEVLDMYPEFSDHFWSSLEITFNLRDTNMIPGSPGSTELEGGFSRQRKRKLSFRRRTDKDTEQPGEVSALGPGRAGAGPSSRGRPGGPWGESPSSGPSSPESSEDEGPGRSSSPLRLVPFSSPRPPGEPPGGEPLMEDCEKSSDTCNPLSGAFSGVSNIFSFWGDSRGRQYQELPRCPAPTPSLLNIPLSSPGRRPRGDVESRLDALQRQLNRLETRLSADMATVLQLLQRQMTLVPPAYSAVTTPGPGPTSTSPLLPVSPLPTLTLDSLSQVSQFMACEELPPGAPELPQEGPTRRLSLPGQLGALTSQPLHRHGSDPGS

SMILES	hERG current change (%, negative = inhibition) at 10uM [%]
COCCn1c(SCC(=O)N2CCCc3ccccc32)nc2c(c1=O)SC(C)C2 (stereo not drawn)	-21.6
Cc1cccc(-c2noc(-c3c(C)noc3C)n2)c1	26.9
COc1ccc(C2CC(=O)c3cnc(NC(=O)c4ccccc4)nc3C2)cc1OC (stereo not drawn)	-15.7
CC1(C)Cc2c(sc3ncnc(NNC(=S)NCc4ccccc4)c23)CO1	17.2
COc1cc(O)c(C(CC(=O)N2CCCCC2)c2ccc3c(c2)OCO3)c(OC)c1 (stereo not drawn)	5.41
C=C(C)Cn1c(=O)c2c(nc3n2CC(C)CN3Cc2ccccc2)n(C)c1=O (stereo not drawn)	-65.6
O=C1/C(=C/c2cccc([N+](=O)[O-])c2)CCc2ccccc21	-12
N/C(=N\[N+](=O)[O-])N/N=C/c1ccc(O)cc1	3.79
Cc1nnc2ccc(-c3cccc(NS(C)(=O)=O)c3)nn12	-17.1
Cc1ccc(S(=O)(=O)NCCN2CCOCC2)c(C)c1.Cl	26.4
O=C(Nc1ccc2nc(N3CCOCC3)sc2c1)c1ccc(F)cc1	-8.16
CCOC(=O)CCNC(=O)CNC(=O)OCc1ccccc1	10.8
CC(=O)n1cc([C@H]2C=C(C(=O)N3CCN(Cc4ccc5c(c4)OCO5)CC3)O[C@@H](OCc3ccc(CO)cc3)C2)c2ccccc21	3.43
COc1ccc(OCC(=O)NNC(=O)C2CCCO2)cc1 (stereo not drawn)	5.39
CC(=O)N1CCN(c2ccccc2NC(=O)c2cc(Br)ccc2Cl)CC1	-66.6
O=C(O)C(=O)O.O=C(c1cccc2ccccc12)N1CCN(Cc2ccccc2F)CC1	5.84
COc1cccc(CNC(=O)CCS(=O)(=O)c2ccc3c(c2)NC(=O)CS3)c1	-3.23
O=C(CS(=O)(=O)c1c[nH]c2ccccc12)N1CCCCC1	9.51
O=C(NC(C(=O)N1CCCC1C(=O)O)=C1CCCCC1)c1ccccc1 (stereo not drawn)	1.36
O=C(Nc1ccccc1)c1cc(-n2cnnc2)ccc1Cl	9.46
COc1cccc(NC(=O)CN(c2cccc(C(F)(F)F)c2)S(C)(=O)=O)c1	-3.67
O=C(O)C1CCCCC1C(=O)Nc1ccc2c(c1)CCC2 (stereo not drawn)	1.57
COc1ccc(CC(=O)NCC(=O)N/N=C/c2sccc2C)cc1	-33.3
CCC1C(=O)N=C(SCC(=O)Nc2ccc(C(=O)OC)cc2)NC1=O (stereo not drawn)	10.4
